Measurements as given in ChEMBL document CHEMBL1157539, “Thousands of chemical starting points for antimalarial lead identification” (Nature, 2010).
The full ranking holds about 13,000 compounds; the median of “IFI” is about 4, and the highest 2% start at about 17. Some of the results follow.

Assay: GSK_TCMDC: Inhibition Frequency Index (IFI). The number of non-kinase HTS assays where a compound showed > 50 % inhibition, expressed as a percentage of the number of such assays in which the compound was tested (-0 is zero)
Format: functional

| Structure (SMILES) | IFI [%] |
| --- | --- |
| CN(Cc1cccc(O)c1)C1CCN(c2cc(NC(=O)c3cccc(F)c3)ccn2)CC1 | 0 |
| CN1CCN(c2cccc(Nc3nccc(NCC(O)c4ccccc4)n3)c2)CC1 (stereo not given) | 4.04 |
| O=C(Cc1ccccc1)NC1(c2ccccc2)CCN(CCc2c[nH]c3ccc(F)cc23)CC1 | 4.84 |
| COc1ccc(C=NNc2nc(O)cc(-c3ccccc3)n2)cc1OC | 0.8 |
| O=C(NCc1ccccc1)NC(CCCN1CCC(Oc2cccc(Cl)c2)CC1)c1ccc(Cl)c(Cl)c1 (stereo not given) | 9.22 |
| CC(C)(C)c1ccc(N2C(N)=NC(N)=NC2(C)C)cc1Cl | 3.73 |
| CCC(Cc1cnc2nc(N)nc(N)c2n1)c1ccc(C(=O)N[C@@H](CCC(=O)O)C(=O)O)cc1 (stereo not given in full) | 2.21 |
| CO/C(=C\C=C\c1cc2cc(Cl)c(Cl)cc2[nH]1)C(=O)NCCCN1CCN(c2ccncc2)CC1 | 2.16 |
| COc1cc2nc(N3CCC(CNC(=O)c4ccc(-c5ccc(C(=O)N(C)C)cc5OCCO)cc4)CC3)nc(N)c2cc1OC | 0.91 |
| Fc1cccc(COc2ccc(Nc3ncnc4sc(C#C[C@H]5CC[C@H](CNCC(F)(F)F)N5)cc34)cc2Cl)c1 | 2.21 |
| CC(C)(C)[C@@H](Nc1ccc(C#N)c2ccccc12)C(=O)NC1(Cc2ccc(O)cc2)CCCC1 | -0 |
| Oc1cccc(Nc2ccnc3cc(-c4nccs4)ccc23)c1 | 7.26 |
| CS(=O)(=O)CCNCc1nc(-c2ccc3c(Nc4ccc(Cl)cc4F)ccnc3c2)cs1 | 7.69 |
| O=C(Nc1ccc2nccc(N3CCN4CCC[C@H]4C3)c2c1)c1ccc(Cl)c(Cl)c1 | 0 |
| Cc1ccc2[nH]c(C)cc(=NN=Cc3cccc(F)c3)c2c1 | 4.55 |
| Nc1c2c(nc3ccc(NC(=O)c4ccccc4)cc13)CCCC2 | 2.86 |
| CC1(CCCCN2CCC(Cc3ccccc3)CC2)C(=O)Nc2ccccc21 (stereo not given) | 2.9 |
| O=C(CSc1ccccn1)Nc1c(F)cccc1F | 0 |
| O=C(NCC1CCC(C(=O)NCCc2ccc(Cl)c(Cl)c2)CC1)c1ccc(O)c(-c2ccc(Cl)c(Cl)c2)c1 (stereo not given) | 1.52 |
| CCOC(=O)c1cn(CC)c2cc(F)c(OC3CC4CCC3(C)C4(C)C)cc2c1=O (stereo not given) | 2.24 |

| Structure (SMILES) | IFI [%] |
| --- | --- |
| CC(C)=CCN1CCC(C(=O)Nc2ccc(-c3nc4ccccc4[nH]3)cc2)CC1 | 0 |
| CCOc1ccc2nc(N(CCCn3ccnc3)C(=O)C=Cc3cccs3)sc2c1 | -0 |
| COc1ccc2nccc([C@@H](O)CN3CCC(NCc4cc5cc([N+](=O)[O-])ccc5[nH]4)CC3)c2c1 | 5 |
| O=C(Nc1cccc(CN2CCCN(Cc3ccsc3)CC2)c1)c1ccc(-c2ccccc2)cc1 | 6.25 |
| Nc1cccc(CNCc2cccc(-c3ccc(-c4nc5cc(C(F)(F)F)ccc5[nH]4)cc3)c2)c1 | 12.4 |
| COc1cc2ncnc(Nc3ccc(OCc4ccccc4)c(OCc4ccccc4)c3)c2cc1OC | 1.6 |
| NCC1CCCN1Cc1cccc(-c2cccc(-c3nc4cc(F)ccc4[nH]3)c2)c1 (stereo not given) | 5 |
| COc1cccc(C(=O)NCc2cccs2)c1Oc1ccccc1 | 0 |
| COc1ccc(-c2cccc(NC(=O)c3cccc(Cl)c3)c2)cc1CN1CCNCC1 | 6.93 |
| OC(CNc1ccnc(Nc2cccc(CCN3CCOCC3)c2)n1)c1ccccc1 (stereo not given) | 9.28 |
| COc1ccccc1C1CCN(C2CCC(NC(=O)/C=C/c3cccc(Cl)c3)CC2)CC1 (stereo not given) | 6.67 |
| CN1CCCC1CCNCc1cccc(-c2cnc(N3CCCC(C)(C)C3)nc2)c1 (stereo not given) | 10 |
| Oc1ccc2[nH]c(-c3cccc(F)c3)nc2c1CN1CCC(N2CCCC2)CC1 | 0.96 |
| Fc1cccc(COc2ccc(Nc3ncnc4sc(C#CCNC5CCC5)cc34)cc2Cl)c1 | 2.22 |
| CC(C)c1ccc2oc(-c3ccc(NC(=O)c4ccc([N+](=O)[O-])o4)cc3)nc2c1 | 2.27 |
| Cc1ccc(NC(=O)NC2CCN(CCCCCNC(=O)/C=C/c3ccc(Cl)c(Cl)c3)CC2)cc1 | 6.04 |
| Fc1ccc2[nH]c(-c3ccc(-c4ccc(CN5CCCCC5)cc4)cc3)nc2c1 | 2.78 |
| N=C(NCCc1ccccc1Cl)c1ccc2ccccc2c1 | 5.15 |
| CCOc1ccc(Br)cc1/C=C/C(=O)Nc1ccc2c(c1)CCCN(C)C2 | 12.7 |
| CCCCOC(=O)c1ccc(Nc2cc(C)nc3ccc(OC)cc23)cc1 | 2.44 |

| Structure (SMILES) | IFI [%] |
| --- | --- |
| O=C(c1ccco1)N1CCN(c2ccc([N+](=O)[O-])c(NC3CC3)c2)CC1 | 3.53 |
| CN(C)c1ccc(Br)c(Br)c1 | 0.72 |
| CC(=O)Nc1cccc(C(=O)Nc2cccc(-c3ccc(-c4nc5cc(F)ccc5[nH]4)s3)c2)c1 | 9.17 |
| CCc1ccc(NC(=O)c2ccc(CN3CCCN(Cc4cccc(Cl)c4)CC3)cc2)cc1 | 12 |
| N=C1N=C(N)NC2(CCCCC2)N1OCCOc1ccc(Cc2ccccc2)cc1 | 27.6 |
| COc1cccc(CNC[C@@H](O)[C@H](Cc2ccccc2)NC(=O)c2cc(C(C)C)cc(N3CCCC3=O)c2)c1 | 2.86 |
| Cc1cccc2nc(-c3ccc(-c4ccc(CNCCCNS(C)(=O)=O)cc4)s3)[nH]c12 | 2.97 |
| CSc1nccc(-c2ccc3ccnc(N)c3c2)n1 | 2.7 |
| Cc1cnc2cc3c(cc2c1N1CCN(C)CC1)NCC3 | 0.73 |
| CN(C)Cc1ccc(-c2cccc(NC(=O)c3cccc(Cl)c3)c2)cc1 | 2.91 |
| O=C(/C=C/c1ccc(Cl)c(Cl)c1)NCCCCCN1CCC(NC(=O)Nc2ccc(OC(F)F)cc2)CC1 | 6.04 |
| COc1ccc(-c2cccc(NC(=O)c3ccc(C#N)cc3)c2)cc1CN(C)CCN(C)C | 6.58 |
| N#Cc1ccc2c(c1)CCN(CCC1CCC(NC(=O)/C=C/c3cccc4ccccc34)CC1)CC2 (stereo not given) | 0.71 |
| CN(CCCN)CCCNc1ccnc2cc(Cl)ccc12 | 2.94 |
| COc1ccc2cc(C=NNc3nc4ccccc4[nH]3)c(Cl)nc2c1 | -0 |
| c1ccc(CCNCc2ccc(-c3ccc(CNc4ccc5ncccc5c4)cc3)cc2)cc1 | 11.8 |
| Cc1cc(F)ccc1N(c1nc(-c2cc(Cl)ccc2Cl)cs1)C1CCNC1 (stereo not given) | 21.4 |
| Cc1cc(OCCCNc2nc(NCCc3ccc(O)cc3)nc(N3CCNCC3)n2)c(Cl)c(C)c1Cl | 18.5 |
| CCOc1ccccc1NC(=O)C(Sc1nc(C)cc(C)c1C#N)c1ccccc1 (stereo not given) | 4.08 |
| CC(=O)c1ccc2cc(C(=O)NC3CCC(CCN4CCc5ccc(-c6noc(C)n6)cc5CC4)CC3)[nH]c2c1 (stereo not given) | 0.74 |
